# The campaign covered roughly 310,000 compounds. About 14,000 (4.5%) showed an effect of 50% or more. The effect is printed as a negative number. Some of the results follow.
# Molecular target: human ether-à-go-go-related gene (hERG) potassium channel (human, UniProt Q12809)
# Assay: primary screen, population patch clamp on CHO cells stably expressing hERG
# 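Also: peak tail current of the secondary pulse compared with the same well before compound.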
# Sequence of human ether-à-go-go-related gene (hERG) potassium channel (Q12809 whole entry, looked up): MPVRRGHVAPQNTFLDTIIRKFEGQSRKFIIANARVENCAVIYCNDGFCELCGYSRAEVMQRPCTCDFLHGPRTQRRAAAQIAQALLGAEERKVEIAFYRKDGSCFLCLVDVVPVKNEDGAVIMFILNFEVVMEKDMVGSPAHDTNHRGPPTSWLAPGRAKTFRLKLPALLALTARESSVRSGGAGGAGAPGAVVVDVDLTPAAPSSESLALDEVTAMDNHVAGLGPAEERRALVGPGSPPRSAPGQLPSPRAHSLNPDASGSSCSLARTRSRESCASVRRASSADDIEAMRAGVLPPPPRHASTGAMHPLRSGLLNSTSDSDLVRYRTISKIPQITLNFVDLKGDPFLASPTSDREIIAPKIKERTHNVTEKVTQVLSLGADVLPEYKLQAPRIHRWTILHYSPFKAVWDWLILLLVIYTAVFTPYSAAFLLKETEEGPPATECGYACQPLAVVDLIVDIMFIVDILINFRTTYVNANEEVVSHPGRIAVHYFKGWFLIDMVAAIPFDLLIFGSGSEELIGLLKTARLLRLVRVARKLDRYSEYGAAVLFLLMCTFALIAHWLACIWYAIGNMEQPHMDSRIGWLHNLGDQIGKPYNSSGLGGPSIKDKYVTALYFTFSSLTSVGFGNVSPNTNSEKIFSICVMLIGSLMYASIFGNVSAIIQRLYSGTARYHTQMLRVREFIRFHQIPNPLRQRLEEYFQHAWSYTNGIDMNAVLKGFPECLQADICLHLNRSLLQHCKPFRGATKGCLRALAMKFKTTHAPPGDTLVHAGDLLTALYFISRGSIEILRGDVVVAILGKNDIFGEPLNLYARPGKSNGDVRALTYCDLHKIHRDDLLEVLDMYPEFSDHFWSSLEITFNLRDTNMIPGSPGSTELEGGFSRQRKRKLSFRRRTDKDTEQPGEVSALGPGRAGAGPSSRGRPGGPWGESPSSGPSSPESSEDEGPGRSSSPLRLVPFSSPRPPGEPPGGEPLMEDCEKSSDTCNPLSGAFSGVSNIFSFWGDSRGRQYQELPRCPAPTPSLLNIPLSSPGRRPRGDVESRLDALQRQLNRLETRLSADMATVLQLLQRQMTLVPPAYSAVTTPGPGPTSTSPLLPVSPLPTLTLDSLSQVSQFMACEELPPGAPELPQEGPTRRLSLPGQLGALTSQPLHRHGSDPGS
row,SMILES,"hERG current change (%, negative = inhibition) at 10uM [%]"
1,CCn1c(SCC(=O)N2c3ccccc3CCc3ccccc32)nnc1-c1ccc(OC)cc1,-7.97
2,O=[N+]([O-])c1ccc(NC(=S)N2CCN(c3ccccn3)CC2)cc1,-6.23
3,CCOc1ccc(NC(=S)NCCCc2ccccc2)cc1,-12.4
4,Cc1ccc(CNC(=O)CSc2c3c(nc4ccc(Cl)cc24)CCCC3)o1,-0.428
5,COCCOC(=O)/C(C#N)=C/c1cn(Cc2ccccc2)nc1-c1cccnc1,-67.1
6,COC(=O)C1=C(c2cc3ccccc3o2)C[C@@H]2CC[C@H]1N2C(=O)NCCCOC(C)C,-9.32
7,CCOCc1nnc(NC(=O)COC)s1,-2.04
8,Cc1ccc(S(=O)(=O)CCC(=O)c2ccc(O)cc2O)cc1,-25.1
9,CC(C)(C)c1ccc(Oc2ccc(NC(=O)c3ccccc3C(=O)O)cn2)cc1,15.3
10,O=C(c1ccc(F)c(F)c1)N1CCC2(CC1)NCCc1[nH]cnc12,10.3
11,COc1ccc(C2SCC(=O)N2c2ccc(OC)cc2)cc1 (centres unmarked),12.8
12,COC(=O)c1ccc(CN2CCN(CCC(C)C)C(CCO)C2)cc1 (centres unmarked),-25.7
13,O=C(CN=C1NS(=O)(=O)c2ccccc21)OCC(=O)c1ccccc1,-0.856
14,COc1cccc(-c2nnc(NC(=O)c3ccc(S(=O)(=O)N(CC(C)C)CC(C)C)cc3)o2)c1,18.5
15,CCOC(=O)C(O)(c1ccc(NC(=O)Oc2ccccc2)cc1)C(F)(F)F (centres unmarked),-3.78
16,Cc1nnc(SCC(=O)N(C)c2c(N)n(Cc3ccccc3)c(=O)[nH]c2=O)n1Cc1ccccc1,13.7
17,Cc1c(C(=O)NCc2cccnc2)oc2ccc(S(=O)(=O)N3CC(C)CC(C)C3)cc12 (centres unmarked),6.69
18,CCOc1ccc2nc(N/C(N)=N/C(=S)Nc3ccc(OC)cc3)nc(C)c2c1,13.7
19,CSc1nc2ccccc2s1,9.72
20,COCC1CCN(C(=O)c2ccc(OC)c(OC3CCN(C(C)C)CC3)c2)CC1,17.9
21,O=C(NCc1ccc(Cl)cc1)C(=O)N/N=C/c1ccc(Br)cc1,19.4
22,Cc1ccc2nc(-c3ccc(NC(=O)CCS(=O)(=O)c4ccccc4)cc3)sc2c1,2.03

row,SMILES,"hERG current change (%, negative = inhibition) at 10uM [%]"
1,CCOC(=O)c1cc(OC(=O)c2cccc([N+](=O)[O-])c2)n(-c2ccccc2)n1,3.84
2,CCCn1c(=O)c2c(nc3n2CC(C)CN3Cc2ccccc2)n(C)c1=O (centres unmarked),-39.4
3,CCOC(=O)C1CCN(C(=O)c2cccc(S(=O)(=O)N3CCc4ccccc43)c2)CC1,-56.4
4,CCOc1ccc2nc(N(CCCN(C)C)C(=O)c3ccc4c(c3)CCCC4)sc2c1.Cl,-14.1
5,COc1ccc(Cl)cc1CSc1ncn[nH]1,-3.67
6,O=C(CCNC(=O)c1ccco1)Nc1ccccc1,15
7,CC(=O)Nc1cccc(OCC(O)Cn2c(C)nc3ccccc32)c1 (centres unmarked),10.3
8,CCC(C(=O)OCC(=O)Nc1ccc(OC)cc1OC)c1ccccc1 (centres unmarked),-29.8
9,CC(C)NC(=O)c1sc2c(c1C(=O)Nc1cccnc1)CCCC2,-69.7
10,CCc1nc2cc(Cl)c(Cl)cc2[nH]1,2.59
11,O=C(NCCC1=CCCCC1)c1ccc(F)cc1,-9.04
12,COc1ccc2c(c1)c(C(=O)N/N=C/c1cccc(O)c1)c(C)n2C,-17.7
13,C=CCOc1c(Br)cc(/C=N\n2nnnc2N)cc1OC,4.66
14,COc1ccc(C2(C)NC(=O)N(CC(=O)Nc3ccc(C)cc3Br)C2=O)cc1OC (centres unmarked),1.02
15,O=C(O)CCC(=O)c1ccc2ccc3cccc4ccc1c2c34,13.7
16,CCN(Cc1ccccc1)C(=O)CS(=O)(=O)c1ccccc1,1.42
17,O=C(CSc1ncnc2nc[nH]c12)c1ccccc1,14.6
18,NC(=O)CSc1nc(-c2ccccc2)nc2ccccc12,-0.916
19,Cc1ccccc1C(=O)NC(=S)Nc1ccc2[nH]c(=O)[nH]c2c1,23.1
20,CCCCn1c(N)c(N(CC(C)C)C(=O)Cc2ccc3c(c2)OCCO3)c(=O)[nH]c1=O,4.66
21,CC(C)OCCCNc1ncnc2c1nc1n2CCCC1,-72.6
22,Cc1cc2c3c([nH]c2cc1S(=O)(=O)NCc1ccc(CN2CCCCCC2)o1)CCCC3=O,-31.9
